# Results as given in PubChem BioAssay AID904 (National Center for Advancing Translational Sciences (NCATS), 2007).
# The campaign covered roughly 55,000 compounds. About 530 (0.96%) were called active. Inconclusive results, whose numbers are uncertain, are shown with a selection of clear calls. Calls follow the shape of the dose curve; as a rule, active = well fitted cell-killing curve with a large enough effect; inconclusive = small, poorly fitted or top-dose-only effect; inactive = no such curve, though single readings can be large or run the other way. A potency beside an inconclusive call is a rough fit, not a confirmed value.
# Test: qHTS Screen for Compounds that Selectively Target Cancer Cells with p53 Mutations: Cytotoxicity of p53 Null Cells at the Nonpermissive Temperature; also: nearly all actives have a fitted effect of over 50% in size;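 as to activity, negative = cell killing: 0% = DMSO only and -100% = full killing by 100 µM tamoxifen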
# Details: H1299 p53-null (neo) cells, 39C, ATPlite viability, 24 h; activity, negative = cell killing: at 46.1 µM (top of the series)
# In short: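 Following overnight plating at 37C (600 cells/well), H1299-neo or H1299-p53A138V cells are dosed up to 46 uM. Incubation lasts 24 hr at 39C before ATP detection.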
# Potency is read from the fitted curve at half-maximal effect; tags tell the direction and shape of the fitted curve.
SMILES,Potency,"activity, negative = cell killing"
CCCCNc1sc(S(=O)(=O)CC)nc1S(=O)(=O)c1ccc(C)cc1,inactive,
CCCN(C(=O)CCc1nc(-c2ccccc2F)no1)c1ccc(CC)cc1,"inconclusive: 17.8 µM [cytotoxic, single point]",
CN(CC(=O)Nc1cccc(C(F)(F)F)c1)S(=O)(=O)c1ccc2[nH]c3c(c2c1)CCCC3,"inconclusive: 35.5 µM [cytotoxic, single point]",
COc1cc(C2CC(=O)c3c([nH]c(C(=O)OC4CCCCC4)c3C)C2)cc(OC)c1OC (stereo not drawn),inactive,
Cc1ccc(Nc2c(-c3ccc(N4CCOCC4)cc3)nc3ncccn23)cc1,inactive,
Cc1ccc(C(=O)Nc2c(C(=O)NCc3ccc(Cl)cc3)sc3nc(C)cc(C)c23)cc1,,inconclusive: -41.6% [cytotoxic]
CCOC(=O)c1cc(S(=O)(=O)N2CCN(c3ccc(OC)cc3)CC2)[nH]n1,"inconclusive: 2.51 µM [cytotoxic, partial curve, poor fit]",
COc1ccc(S(=O)(=O)NCCc2csc(-c3ccc(F)cc3)n2)cc1,inactive,
COc1ccc(C(=O)N(Cc2cc(OC)c(OC)c(OC)c2)CC2CCCO2)cc1 (stereo not drawn),"inconclusive: 7.94 µM [cytotoxic, partial curve, poor fit]",
O=C(NCC(c1cccnc1)N1CCc2ccccc21)c1cccc(C(F)(F)F)c1 (stereo not drawn),"inconclusive: 0.355 µM [cytotoxic, full curve, poor fit]",
COc1ccc(C(C)C)cc1S(=O)(=O)NCCc1c(C)[nH]c2ccc(C)cc12,"inconclusive: 11.2 µM [cytotoxic, single point]",
CCC(Sc1nncn2c1cc1occc12)C(=O)Nc1ccc(C)c(Cl)c1 (stereo not drawn),inactive,
Fc1ccc(Nc2c3c(nc4ccccc24)CCC3)cc1,"inconclusive: 20 µM [cytotoxic, partial curve]",
CCc1nnc(SC(CC)C(=O)Nc2cccc(OC)c2)c2cc3oc(C)cc3n12 (stereo not drawn),"inconclusive: 15.8 µM [cytotoxic, single point]",
CC(C)Oc1ccc(C(=O)N(Cc2ccco2)c2ccccn2)cc1,"inconclusive: 11.2 µM [cytotoxic, partial curve]",
CCOc1ccccc1NC(=O)CN(C)S(=O)(=O)c1ccc2nc(C)sc2c1,"inconclusive: 15.8 µM [cytotoxic, single point]",
CCOC(=O)c1c(C)[nH]c(CCC(=O)Nc2ccc(C)c(F)c2)c1C,"inconclusive: 0.0251 µM [cytotoxic, full curve, poor fit]",
CN(Cc1ccccc1)C(=O)Nc1ccc2c(c1)N(C)C(=O)c1ccccc1S2,"inconclusive: 31.6 µM [cytotoxic, single point]",
